The text below walks through data of PubChem BioAssay AID720736 (The Scripps Research Institute Molecular Screening Center, 2013).

SMILES strings stand for the structures. Certain results were filed several times, with different values. The other results are left out here.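 Rule for the calls: active = growth inhibition of at least 50% in any replicate; inactive = growth inhibition below 50% in every replicate.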 The source may hold further records. Values given together are repeats across runs, samples, wells, individuals or studies. Records carry a tag for their origin. A, B and so on number the origins entry by entry.

The assay is described as follows: antiplasmodial activity in infected erythrocytes – cell-based, radiolabel, 3D7, RBCs, Set2, M18AAP inhibitor project, late-stage follow-up (AID 720736). As to conditions: P. falciparum 3D7 in RBCs, 3H-hypoxanthine incorporation, 48 h; run 1; at 10 µM; stronger effect = higher value. Summed up:
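Evaluation: % growth inhibition versus vehicle-treated parasites, background-subtracted. Assay system: P. falciparum 3D7-infected RBCs. Reagent: 3H-hypoxanthine, 0.5 µCi/well. Schedule: 48 h compound exposure at 37 °C in low-oxygen gas. Medium: hypoxanthine-free RPMI, 10% serum. Replication: triplicates, one or two experiments. Control set: vehicle-treated parasites and uninfected RBCs. Technique: 3H-hypoxanthine uptake by beta counting.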

With `COc1ccc(CCN(C)c2c3ccccc3nc3ccccc23)cc1OC`, the growth inhibition was 96% [sample A] and inactive: 0% [sample B] and inactive: 0% [sample C].
